According to the supplement of paper PMC5919970:
Counter-ions that a name gives are not always drawn. Over roughly 2,000 compounds, “fractional viability relative to vehicle” has its median near 0.92; the lowest 2% begin near 0.11. The list shows a part of the results.

System: TYKNU
Assay: fractional viability relative to vehicle; TYKNU is a high-grade serous ovarian cancer line; higher = less growth inhibition
Conditions: 72 h, genotype: OPA1 knockout (sgOPA1 #2)
How it was run: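 Drug treatment lasted 72 h, with cells grown at 37 °C in 5% CO2 in RPMI 1640 supplemented with 10% FBS. Beforehand, TYKNU control cells or their lentiCRISPRv2 knockout derivatives had been seeded at 500 cells per well into drug-stamped 384-well plates carrying a ~2100-compound library at 2 or 10 μM, in duplicate. Viability came from Cell Titer Glo luminescence, with averaged duplicate treatment wells normalised to duplicate control wells in the same plate position.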

Structure (SMILES)	fractional viability (2uM)	fractional viability (10uM)
CN1CCCC(n2nc(Cc3ccc(Cl)cc3)c3ccccc3c2=O)CC1 (configuration not stated) [Azelastine HCl]	1.12	0.802
CC(=O)OCOC(=O)CN(CC(=O)OCOC(C)=O)c1ccccc1OCCOc1ccccc1N(CC(=O)OCOC(C)=O)CC(=O)OCOC(C)=O	0.619	0.118
CC(C)C[C@H](NC(=O)[C@H](CCc1ccccc1)NC(=O)CN1CCOCC1)C(=O)N[C@@H](Cc1ccccc1)C(=O)N[C@@H](CC(C)C)C(=O)[C@@]1(C)CO1 [Carfilzomib (PR-171)]	0.0962	0.146
O=S(=O)(c1ccccc1)c1cnc2c(N3CCNCC3)cccc2c1	0.995	0.838
NC(=O)N/N=C/c1ccc([N+](=O)[O-])o1 [Nitrofural]	1.55	1.47
O=C(O[C@H]1CN2CCC1CC2)N1CCc2ccccc2[C@@H]1c1ccccc1 [Solifenacin succinate]	0.873	0.893
CN(NC(=O)CC(=O)NN(C)C(=S)c1ccccc1)C(=S)c1ccccc1 [Elesclomol (STA-4783)]	0.0864	0.107
CO[C@@H]1[C@@H](OC(N)=O)[C@@H](O)[C@H](Oc2ccc3c(O)c(NC(=O)c4ccc(O)c(CC=C(C)C)c4)c(=O)oc3c2C)OC1(C)C [Novobiocin Sodium]	0.928	0.985
NC(=O)c1cnc2[nH]ccc2c1N[C@@H]1[C@@H]2CC3C[C@H]1C[C@@](O)(C3)C2	0.989	1
CCN1CCN(C(=O)N[C@@H](C(=O)N[C@@H]2C(=O)N3[C@@H]2SC(C)(C)[C@@H]3C(=O)O)c2ccccc2)C(=O)C1=O [Piperacillin Sodium]	0.781	0.962
CCN(Cc1ccncc1)C(=O)C(CO)c1ccccc1 (configuration not stated) [Tropicamide]	1.01	0.939
Cc1ncc([N+](=O)[O-])n1CCO [Metronidazole]	1.25	1.88
O=C(Cc1cccc(OC(F)(F)F)c1)Nc1ccc(CCCCc2nnc(NC(=O)Cc3ccccn3)s2)nn1	0.25	0.2
CCN(CC)CC#CCOC(=O)C(O)(c1ccccc1)C1CCCCC1 (configuration not stated) [Oxybutynin]	0.902	0.775
CCN(CC)CC#CCOC(=O)C(O)(c1ccccc1)C1CCCCC1 (configuration not stated) [Oxybutynin chloride]	1.02	0.969
CC(=O)O/N=C1\C(=O)N(Cc2cc(Cl)ccc2Cl)c2ccc(Cl)cc21	1.06	0.985
C=CC[C@@H]1/C=C(\C)C[C@H](C)C[C@H](OC)[C@H]2O[C@@](O)(C(=O)C(=O)N3CCCC[C@H]3C(=O)O[C@H](/C(C)=C/[C@@H]3CC[C@@H](O)[C@H](OC)C3)[C@H](C)[C@@H](O)CC1=O)[C@H](C)C[C@@H]2OC [Tacrolimus (FK506)]	0.935	0.747
O=C(N/N=C/c1ccc(O)c(O)c1)c1cc2ccccc2cc1O [Dynasore]	0.819	0.86

Structure (SMILES)	fractional viability (2uM)	fractional viability (10uM)
Cc1ccc(C(=O)c2cc(O)c(O)c([N+](=O)[O-])c2)cc1 [Tolcapone]	0.826	0.845
O=C([O-])c1ccccc1O.[Na+] [Sodium salicylate]	0.951	0.945
COc1ccc2[nH]cc(CCNC(C)=O)c2c1 [Melatonin]	1.01	1.12
Cc1cc([N+](=O)[O-])ccc1NS(=O)(=O)c1cc(Cl)ccc1Cl	0.656	0.476
COc1ccc(COc2ccc(Cc3cnc(N)nc3N)cc2OC)cc1	0.81	0.833
O=C(O)CCNc1cc(N2CCc3ccccc3CC2)nc(-c2ccccn2)n1	0.743	0.872
Cc1ccc(S(=O)(=O)NC(=O)NN2CC3CCCC3C2)cc1 (configuration not stated) [Gliclazide]	1.04	1.08
O=c1c(O)c(-c2cc(O)c(O)c(O)c2)oc2cc(O)cc(O)c12 [Myricetin]	0.937	0.976
Cc1cc(Cn2cnc3c2CC(C(=O)O)N(C(=O)C(c2ccccc2)c2ccccc2)C3)ccc1N(C)C (configuration not stated)	0.986	0.95
O=C(Nc1cc(C(F)(F)F)ccc1N1CCCCC1)c1ccncc1	1.1	1.13
Cc1ccc(NC(=O)c2ccc(CN3CCN(C)CC3)cc2)cc1Nc1nc(-c2cccnc2)cs1 [Masitinib (AB1010)]	1.5	1.25
COc1nc(C)nc(Cl)c1NC1=NCCN1 [Moxonidine]	1.04	0.918
CCCC[C@@H](C=O)NC(=O)[C@H](CC(C)C)NC(=O)OCc1ccccc1 [Calpeptin]	0.706	0.926
CCO[C@@H]1OC(=O)C[C@@H]1NC(=O)[C@@H]1CCCN1C(=O)[C@@H](NC(=O)c1ccc(N)c(Cl)c1)C(C)(C)C	0.969	0.919
O=C(CCCN1CC=C(n2c(=O)[nH]c3ccccc32)CC1)c1ccc(F)cc1 [Droperidol]	1.03	0.969
COc1ccc2cc(CCC(C)=O)ccc2c1 [Nabumetone]	0.955	0.879
COc1ccc(-c2oc3c(CC=C(C)C)c(O[C@@H]4O[C@H](CO)[C@@H](O)[C@H](O)[C@H]4O)cc(O)c3c(=O)c2O[C@@H]2O[C@@H](C)[C@H](O)[C@@H](O)[C@H]2O)cc1 [Icariin]	0.965	0.99
CCn1cc(C(=O)O)c(=O)c2ccc(C)nc21 [Nalidixic acid]	1.05	0.801
